# The name of at least one read-out is uncertain.
# System: astrocytes
# Assay: Extracellular lactate quantification
# Assay type: cell-based, mouse
# Conditions: Appendix II
# Description: Primary cultures of cerebrocortical astrocytes were obtained from 1-2-day-old OF1 mouse pups (Charles River Laboratories). Briefly, cortices were isolated and minced in small pieces under a dissecting microscope. The cells were incubated for 30 min at 37° C. in a solution containing 20 U/ml of papain enzyme (Worthington Biochemical), L-cysteine 1 mM (Sigma), and 10 kU/ml DNase I (Worthington Biochemical) for an enzymatic dissociation. Papain activity was stopped by the addition of fetal calf serum (FCS) to the solution, and a single-cell suspension was then obtained by mechanical dissociation, which consisted in cells trituration in a DMEM (D7777, Sigma-Aldrich) medium (supplemented with 44 mm NaHCO3, and 10 ml/L antibiotic/antimycotic solution) containing 10% FCS. The cells were seeded at an average density of 6×10^4 cells/cm^2 in poly-D-lysine-coated 96, 12 or 6-well culture plates, depending on their use, and incubated at 37° C. in a humidified atmosphere containing 5% CO2/95% air. Culture medium was renewed twice per week. Cells were stimulated and harvested between DIV14 and DIV17, when confluence and cell growth were optimal.
# Secretion of L-lactate was determined in the extracellular medium of 96-well plated astrocytes after 90 min stimulation (at 37° C., in 5% CO2/95% air conditions) with the drug of interest. The stimulation medium was composed of D5030 medium (completed with D-glucose 5 mM and 44 mM sodium bicarbonate) for 90 min in concentrations ranging from 0 to 100 μM.
# Briefly, 200 μl of a Glycine (Sigma)-Semicarbazide (Acros) 0.2M pH 10 buffer containing 3 mM NAD (Roche) and LDH 14 U/ml (Roche) was added to each well of a 96-well plate containing 30 μl aliquots complemented with 20 μl fresh complete D5030 medium. Samples were incubated at 37° C. for 1 h. After samples cooled down at room temperature, the fluorescence intensity (340 nm excitation/450 nm emission) that represents the amount of NADH produced was measured, and lactate concentration values were determined from a standard curve of L-lactate.
# Statistical analysis consisted in ANOVA followed by Fisher LSD post-hoc test for pair-wise comparisons.
# Levels of lactate secreted by astrocytes were measured in the extracellular medium at 90 min after stimulation with hits (molecules) from the CDC54K library.
row,Compound,Score Lact.
1,CCc1cc2c(NC3CCCC3)ncnc2s1 [887-0183],0.66
2,Cc1noc2ncnc(NC(C)CCc3ccccc3)c12 (stereo not shown) [E944-0182],0.55
3,COc1ccc(S(=O)(=O)Nc2ccc(N3CCCCS3(=O)=O)cc2)cc1C [F2794-0128],0.62
4,Cc1cccc(NS(=O)(=O)c2ccc(F)c(Cl)c2)c1 [F3394-1364],0.33
5,FC(F)(F)c1cccc(CNc2ncnc3[nH]ncc23)c1 [F5285-0069],0.36
6,CCc1ccc(S(=O)(=O)Nc2cc3c(cc2C)n(C)c(=O)n3C)cc1 [G433-0293],0.74
7,COc1ccc(NS(=O)(=O)c2ccc(N3CCCCS3(=O)=O)cc2)cc1 [G508-0015],0.67
8,CCc1cccc(NS(=O)(=O)c2ccc3c(c2)CCCN3C(C)=O)c1 [G855-0143],0.56
9,CC(=O)N1CCCc2cc(S(=O)(=O)Nc3ccc(OC(F)(F)F)cc3)ccc21 [G855-0183],0.54
10,CCNc1cc(C)nc(Nc2ccc(NC(=O)Cc3ccccc3)cc2)n1 [G869-0064],0.54
11,CCNc1cc(C)nc(Nc2ccc(NC(=O)c3cccs3)cc2)n1 [G869-0071],0.63
12,COc1ccc(CCNc2ncnc3c2cnn3C)cc1 [K405-2595],0.70
13,CCOc1ccc(-c2csc3c(=O)n(Cc4ccncc4)cnc23)cc1OCC [L115-0403],0.81
14,CC(=O)N1CC(C)(C)c2cc(S(=O)(=O)NCc3ccc(C)cc3)ccc21 [L302-0069],0.55
15,CC(=O)N1CC(C)(C)c2cc(S(=O)(=O)Nc3ccc(F)cc3C)ccc21 [L302-0181],0.52
16,Cn1c(=O)c(N2CCC(NC(=O)Nc3cccc(Cl)c3)CC2)nc2ccccc21 [L932-0267],0.53
17,CN(C)c1ccc2ncnc(N3CCN(C(=O)c4ccc(Cl)cc4)CC3)c2c1 [M381-0730],0.57
18,CCc1ccc(NC(=O)Cc2cn(C)c3ncccc23)cc1 [M508-0370],0.60
19,CCc1ccc(NS(=O)(=O)c2c(C)c(-c3nnc(C4CC4)o3)n(C)c2C)cc1 [M950-1515],0.67
20,CCCCN1C(=O)C(C)(C(=O)Nc2ccc(OCC)cc2)Oc2cccnc21 (stereo not shown) [P621-1364],0.43
21,CCOc1ccc(C2(O)C(C)[N+]3=C(CCC3)N2c2ccc(OC)cc2)cc1.[Br-] (stereo not shown) [T0500-6629],0.61
22,Cc1nc2ccccc2n1CCOc1ccc(Br)cc1 [T0505-4087],0.64
23,O=C(O)C(=O)O.O=C(O)C(=O)O.c1ccc(-c2c[nH]c3ncnc(NCCN4CCOCC4)c23)cc1 [T0513-0213],0.30
24,CC1(C)Cc2cccc(OCC(O)CN3CCc4ccccc4C3)c2O1.Cl (stereo not shown) [T0515-1783],0.59
25,N#Cc1cc(C(=O)c2cc(F)ccc2O)cn(-c2ccc(F)c(Cl)c2)c1=O [T0516-6894],0.38
26,Cc1sc2nc(CSc3nc4ccccc4c(=O)n3C)[nH]c(=O)c2c1C [T0517-2783],0.46

row,Compound,Score Lact.
1,COc1ccc(NS(=O)(=O)c2cccc(NC(=O)c3cccs3)c2)cc1 [T0517-4117],0.91
2,CCN(CC)C(=O)c1nc(CNC(=O)c2ccc3ccccc3n2)oc1C [T993-1787],0.36
3,O=c1[nH]nc(OCCOc2ccc(Br)cc2)n1C1CC1 [T533260],0.53
4,COc1ccc(NS(=O)(=O)c2cccc(NC(=O)c3ccccc3)c2)cc1 [T5274959],0.68
5,O=S(=O)(Nc1ccc(S(=O)(=O)C(F)F)cc1)c1ccc(Cl)cc1 [T5311200],0.56
6,CCOc1ccc(CN(C)CC(=O)Nc2cccc(C)c2)cc1OC [T5318833],0.42
7,COc1ccc(NS(=O)(=O)c2ccc(NC(=O)C3CCCO3)cc2)cc1 (stereo not shown) [T5329723],0.53
8,CN1c2ccccc2C(=O)NC1c1ccc(Cl)c(Cl)c1 (stereo not shown) [T5389517],0.33
9,CN(C)S(=O)(=O)c1cccc(C(=O)Nc2ccc(Oc3ccccc3)cc2)c1 [T5393500],0.59
10,CCC(C)NS(=O)(=O)c1ccc(Oc2ccc(C)cc2)cc1 (stereo not shown) [T5400234],0.33
11,Cc1ccc(OCCn2c(C)nc3ccccc32)cc1 [T5444083],0.51
12,O=C(Nc1ccc(F)c(F)c1)c1ccc(Cl)c(S(=O)(=O)N2CCCC2)c1 [T5450239],0.67
13,CCN(CC)S(=O)(=O)c1ccc(S(=O)(=O)Nc2ccc(C)cc2Cl)cc1 [T5453923],0.66
14,CCN1C(=O)c2cccc3c(S(=O)(=O)Nc4ccc(OC)cc4OC)ccc1c23 [T5477696],0.44
15,Cc1c(O)ccc2c(CN(C)CC3COc4ccccc4O3)cc(=O)oc12 (stereo not shown) [T5494352],0.44
16,CCn1c(=O)c(C)nc2cc(C(=O)N(Cc3ccc(F)cc3)C3CC3)ccc21 [T5586091],0.45
17,Cc1nc2ccc(NC(=O)c3ccc4c(c3)CC(C)N4S(C)(=O)=O)cc2s1 (stereo not shown) [T5606387],0.38
18,N#Cc1ccc(S(=O)(=O)Nc2ccccc2C(=O)NCc2ccccc2)cc1 [T5673322],0.63
19,CCCC(=O)Nc1nc(-c2ccc3c(c2)CCO3)cs1 [T5691896],0.38
20,Cc1ccc(-c2csc(NC(=O)c3ccncc3)n2)cc1[N+](=O)O [T5694329],0.47
21,CC(=O)c1c(C)[nH]c(C(=O)N(C)Cc2ccc(C)cc2C)c1C [T5705522],0.85
22,CC(=O)N1CCc2cc(S(=O)(=O)NCC(C)c3ccccc3)ccc21 (stereo not shown) [T5707230],0.67
23,COc1ccc(C(C)NC(=O)c2cc(=O)c3ccccc3o2)cc1F (stereo not shown) [T5710343],0.67
24,CCc1ccccc1NC(=O)CN(C)c1ncnc2c1oc1ccccc12 [T5712071],0.8
25,Cc1sc2nc(CSc3nc4ccccc4[nH]3)nc(N)c2c1C [T5719257],0.74
26,Cc1ccc(S(=O)(=O)Nc2ccc(F)c(F)c2F)cc1[N+](=O)[O-] [T5729557],0.88

row,Compound,Score Lact.
1,CCc1ccc(S(=O)(=O)Nc2c(C)nn(C)c2C)cc1 [T5753165],0.54
2,COc1ccccc1NC(=O)CO/N=C(/N)c1cccc(C(F)(F)F)c1 [T5770640],0.55
3,COc1cc(C)c(NC(=O)Cc2ccc(Cl)c(Cl)c2)cc1OC [T5783794],0.44
4,c1nc(NCc2ccc3c(c2)OCO3)c2sccc2n1 [T5787526],0.71
5,CC(=O)Nc1cccc(NC(=O)CSc2nc(C)c(C)n2C2CCCC2)c1 [T5788339],0.75
6,CCCCn1c(CN(C)Cc2ccccc2)nc2c1c(=O)n(C)c(=O)n2C [T5788545],0.45
7,c1ccc(CN2CCOCC2)c(CNc2ncnc3ccsc23)c1 [T5790476],0.79
8,COc1cccc(C(CNc2nc(C(F)(F)F)nc3ccccc23)N(C)C)c1 (stereo not shown) [T5800607],063
9,Cn1nc(C(=O)Nc2ccc(Oc3ccccc3Cl)cc2)ccc1=O [T5813085],1.01
10,O=C(O)C(=O)O.c1ccc(Cc2ccc(OCCn3ccnc3)cc2)cc1 [T5821723],0.73
11,CC(C)(C)NS(=O)(=O)c1cccc(C(=O)Nc2ccncc2)c1 [T5827594],0.71
12,COc1ccc(-c2csc(N3C(=O)CC4CS(=O)(=O)CC43)n2)cc1 (stereo not shown) [T5832764],0.60
13,O=C(CN1CCCC1c1ccc2c(c1)OCCCO2)Nc1cc(F)cc(F)c1 (stereo not shown) [T5993799],1.14
14,Cc1cccc(NC(=O)c2ccc(S(=O)(=O)Nc3ccccc3)cc2)n1 [T6125251],0.51
15,O=S(=O)(Nc1ccc(Cl)cc1)c1ccc(F)c(Cl)c1 [T6947848],0.98
16,COc1ccc(CC(=O)Nc2ccc(C)c(C)c2)cc1OC [Y030-2832],0.34
17,O=C(Nc1ccc(S(=O)(=O)NCC2CCCO2)cc1)c1ccccc1 (stereo not shown) [Y031-0361],0.43
18,C1CCCC(NC2=NCCCNC23CCCCC3)CC1 [Z076-0028],0.56
19,CS(=O)(=O)NC1CCN(C(=O)c2ccc(F)cc2)C1 (stereo not shown) [Z603-8037],0.32
20,Cc1nnsc1C(=O)N1CCN(C(C)C)CC1 [Z606-5341],0.36
21,Cc1nc2ncnn2c(NC2CCCCCC2)c1C [Z606-8287],0.57
22,Cc1nc2ncnn2c(NCc2ccco2)c1C [Z606-8298],0.38
23,CCc1c(C)nc2ncnn2c1NC1CCCCCC1 [Z606-8351],0.42
24,CCc1c(C)nc2ncnn2c1NC1CCCCC1 [Z606-8352],0.83
